Data reported in PMC4336329 (PLoS ONE, 2015).
Among all 310,000 compounds or so, about 14,000 (4.5%) showed an effect of 50% or more. Effects have a minus sign here. Some of the results follow.

The compounds below were run against human ether-à-go-go-related gene (hERG) potassium channel (human, UniProt Q12809) (assay: primary screen, population patch clamp on CHO cells stably expressing hERG).
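Note: peak tail current of the secondary pulse compared with the same well before compound.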

Chain of human ether-à-go-go-related gene (hERG) potassium channel (Q12809 whole entry, looked up): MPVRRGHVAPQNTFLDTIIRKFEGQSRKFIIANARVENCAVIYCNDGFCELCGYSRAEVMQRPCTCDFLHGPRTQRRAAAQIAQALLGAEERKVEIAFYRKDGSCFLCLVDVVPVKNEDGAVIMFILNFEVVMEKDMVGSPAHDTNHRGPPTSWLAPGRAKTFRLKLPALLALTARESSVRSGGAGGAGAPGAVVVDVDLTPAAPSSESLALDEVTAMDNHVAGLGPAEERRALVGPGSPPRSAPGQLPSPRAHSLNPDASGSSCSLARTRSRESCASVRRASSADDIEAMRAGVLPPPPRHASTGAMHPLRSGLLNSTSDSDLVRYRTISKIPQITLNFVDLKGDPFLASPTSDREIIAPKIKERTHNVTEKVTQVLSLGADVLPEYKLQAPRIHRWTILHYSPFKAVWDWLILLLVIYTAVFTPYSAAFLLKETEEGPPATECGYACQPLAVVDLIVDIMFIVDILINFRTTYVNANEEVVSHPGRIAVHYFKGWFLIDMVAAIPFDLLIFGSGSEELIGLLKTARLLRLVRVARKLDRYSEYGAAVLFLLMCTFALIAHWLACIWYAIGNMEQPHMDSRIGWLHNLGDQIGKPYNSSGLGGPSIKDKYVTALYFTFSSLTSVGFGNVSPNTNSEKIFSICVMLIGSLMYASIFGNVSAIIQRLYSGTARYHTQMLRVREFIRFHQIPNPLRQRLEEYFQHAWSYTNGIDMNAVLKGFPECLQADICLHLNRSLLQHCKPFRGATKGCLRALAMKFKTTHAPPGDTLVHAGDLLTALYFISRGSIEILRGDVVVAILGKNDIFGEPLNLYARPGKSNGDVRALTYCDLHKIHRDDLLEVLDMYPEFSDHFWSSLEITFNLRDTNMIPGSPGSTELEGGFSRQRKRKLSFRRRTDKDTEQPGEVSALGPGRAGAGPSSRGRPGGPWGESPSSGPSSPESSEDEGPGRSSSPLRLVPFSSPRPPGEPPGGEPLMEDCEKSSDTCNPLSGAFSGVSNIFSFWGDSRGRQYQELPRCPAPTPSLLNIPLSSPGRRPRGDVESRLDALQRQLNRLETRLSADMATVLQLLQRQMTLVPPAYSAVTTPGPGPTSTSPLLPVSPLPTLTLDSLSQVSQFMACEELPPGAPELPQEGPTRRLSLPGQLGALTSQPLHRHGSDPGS

| Structure (SMILES) | hERG current change (%, negative = inhibition) at 10uM [%] |
| --- | --- |
| CCN1CCN(C(=O)Cn2c(=O)sc3ccccc32)CC1 | 3.26 |
| O=[N+]([O-])c1cc(-c2nnc(N3CCOCC3)c3ccccc23)ccc1N1CCOCC1 | -40.3 |
| COc1ccc(-c2noc(CSc3nc(-c4ccccc4)cc(=O)[nH]3)n2)cc1OC | 6.89 |
| Cc1ccc2[nH]c3c(NCCCN4CCCC4=O)ncnc3c2c1 | -13.7 |
| O=C(NCc1ccccc1)Nc1cccn(Cc2ccc(Cl)cc2)c1=O | 22.4 |
| Cl.N=C(N)SCc1cccc2ccccc12 | -13.3 |
| Cc1cccc(-c2nc(CSCC(=O)NCc3cccs3)c(C)o2)c1 | -12.2 |
| O=C(c1cc2cc3ccc(Cl)cc3nc2o1)N1CCC2(CC1)OCCO2 | -17.5 |
| O=C(CN1C(=O)NC2(CCCC2)C1=O)N1CCN(S(=O)(=O)c2ccccc2F)CC1 | 22.3 |
| NC(=O)c1ccc(-n2nc(C(F)(F)F)c3c2CCCC3)cc1 | -22.6 |
| CC(=O)N1CCOc2ccc(S(=O)(=O)N3CCC(C(=O)Nc4ccc(C)cc4C)CC3)cc21 | 6.73 |
| O=C(COC(=O)C1=COCCO1)Nc1ncc(C(F)(F)F)cc1Cl | 4.52 |
| O=C(/C=C/c1ccc(F)cc1)NC(=S)NNC(=O)c1cnccn1 | 19.8 |
| COc1cc2c(cc1OC)-c1cc(Nc3ccc4c(c3)OCCO4)nc(=O)n1CC2 | -15.6 |
| CCCCN=C(NNc1ccc(Br)cc1)C(=O)OCC | 3.69 |
| CC[C@@H](C(=O)[C@@H](C)[C@@H](O)[C@H](C)CCc1ccc(C)c(O)c1C(=O)[O-])[C@H]1O[C@](CC)([C@H]2CC[C@](O)(CC)[C@H](C)O2)C[C@@H]1C.[Na+] | 0.419 |
| C[n+]1cccc(C(=O)NNC(=O)C23CC4CC(CC(C4)C2)C3)c1.[I-] | 37.4 |
| COc1cc(/C=C(\C#N)c2nc3ccccc3[nH]2)ccc1Oc1ccc([N+](=O)[O-])cn1 | -5.49 |
| CCCCn1c(SCC(=O)N2CC(=O)Nc3ccccc32)nnc1-c1ccoc1C | 0.449 |

| Structure (SMILES) | hERG current change (%, negative = inhibition) at 10uM [%] |
| --- | --- |
| CCOc1ccc(S(=O)(=O)N(C)CC(=O)NCc2ccco2)cc1 | 19.9 |
| CCC(C)(C(=O)Nc1ccccc1C)N(C(=O)CNC(C)=O)c1ccccc1C (centres unmarked) | 13.5 |
| C(=N\Nc1nc(N2CCCCC2)nc(N2CCCCC2)n1)/c1c[nH]c2ccccc12 | 17.8 |
| Cc1ccc(-c2nnn(CC(=O)N(CCCO)C(C(=O)NC3CCCC3)c3ccc(F)cc3)n2)o1 (centres unmarked) | 13.4 |
| Cc1ccnc(N2CCC(C(=O)Nc3nnc(C)s3)CC2)n1 | 6.72 |
| Cl.OC(COc1ccccc1Br)CN1CCNCC1 (centres unmarked) | 2.1 |
| Cc1cc(OCc2cc3c(cc2Cl)OCO3)c2c(C)cc(=O)oc2c1 | 10.7 |
| Cc1ccn2cc(CCNS(=O)(=O)c3ccc4ccccc4c3)nc2c1 | -39.6 |
| COc1ccc([C@H]2CC(=O)C=C(c3cc4ccccc4s3)C2)cc1OC | 19.1 |
| COc1ccc(C2=CSC3=C(C(=O)c4cccc(S(=O)(=O)N(C)C)c4)CCN23)cc1 | -47.1 |
| COC(=O)c1sccc1NC(=O)C1CC2CCC1C2 (centres unmarked) | 16.7 |
| O=C(Nc1ccc(F)cc1F)N1CCCCCC1 | 9.59 |
| COc1ccc(NC(=O)C2CCC(=O)N2)cc1 (centres unmarked) | 4.32 |
| O=C(/C=C/c1ccc(O)cc1)c1ccc(O)cc1O | 9.4 |
| Cc1sc(=NC(=O)c2ccco2)n(C)c1-c1ccccc1 | -16.3 |
| Cc1cccc(NC(=S)NCCc2ccccc2)n1 | 7.28 |
| Nc1ccc(S(=O)(=O)NC(Cc2ccccc2)C(=O)O)cc1 (centres unmarked) | 19.6 |
| COC(=O)c1cc(OC)c(OC)cc1NC(=O)c1c(-c2ccccc2Cl)noc1C | -9.48 |
| COc1ccc(CNCCCSc2ncccn2)cc1OC.Cl | 11.9 |

| Structure (SMILES) | hERG current change (%, negative = inhibition) at 10uM [%] |
| --- | --- |
| S=C(NCCc1ccccc1)Nc1cnc2ccccc2c1 | 2.28 |
| Clc1ccc2nc(-c3ccccc3)c(CN3CCOCC3)n2c1 | -26.1 |
| Cc1cc(C)n(C(=O)COc2ccc([N+](=O)[O-])cc2)n1 | 20 |
| C#CCOc1nc(OCC#C)nc(OCC#C)n1 | 17.9 |
| COc1ccc(-c2nc3ccccc3c(=O)n2CCOc2ccccc2C)cc1 | 21 |
| Cc1cc(C)n(-c2nc3c(c(=O)[nH]c(=O)n3C)n2Cc2cccc(Br)c2)n1 | 1.87 |
| Nc1ccccc1C#Cc1ccc2[nH]ccc2c1 | 6.99 |
| COc1ccc2c(c1)CCc1c(C(=O)Nc3c(C)n(C)n(-c4ccccc4)c3=O)noc1-2 | 4.63 |
| Cc1c(C(=O)OCC(=O)Nc2ccc(C(N)=O)cc2)cccc1[N+](=O)[O-] | 10.9 |
| CC(=O)Oc1ccc(C(C)=O)c2c1OCCO2 | 14.3 |
| COc1cc(CN2CCC(C(=O)N3CCCC(C)C3)CC2)cc(Br)c1O.O=C(O)C(=O)O (centres unmarked) | -24.1 |
| CCOc1cc(/C=C2\SC(N)=NC2=O)ccc1O | 15.4 |
| COCCNC(=O)CN(C(=O)c1ccc(N2CCCC2)nc1)c1ccccc1 | 47.3 |
| CCCCCNC(=O)C1CC=CCC1C(=O)O (centres unmarked) | 11.7 |
| CCOC(=O)COc1cccc2c(=O)n(CC(=O)N3CCCc4ccccc43)ccc12 | -9.8 |
| COc1ccc(CNC(=O)CN(Cc2ccc(OC)cc2)C(=O)CCC(=O)Nc2nccs2)cc1 | -15.5 |
| O=C(N/N=C/c1c(O)n(C2CC2)c(=S)[nH]c1=O)c1ccccc1O | 2.57 |
| Cc1ccc(NC(=O)CCC(=O)NNC(=O)COc2ccc([N+](=O)[O-])cc2)c(C)c1 | 10.1 |
